Values joined by “and” are separate entries in the source; they are usually repeats but may differ in a detail not shown here. Identical values can stand only once.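 Exposure lasted 48 hours, with cells grown in 96-well plates and compounds tested at five concentrations. Here, GI50 denotes the concentration required for 50% inhibition of growth.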 Active and inactive are the calls of the source. No stated cut-off is given here; in the data, active = GI50 up to about 1.1 µM and inactive = higher.

These results are taken from ChEMBL document CHEMBL1201862, “PubChem BioAssay data set” (2004).

The test system of the assay is NCI-H322M. Put plainly: DTP human tumour cell line panel, 48 h.
Turning to `CC1=NN(C(=O)c2ccccc2O)C(=O)/C1=C/c1ccccc1O`, the GI50 (commonly the concentration giving 50% growth inhibition) was active: 0.805 µM. With `Cn1c(=O)c2[nH]c(CCC(=O)O)nc2n(C)c1=O` the figure was inactive: > 100 µM. Regarding `CS(=O)(=O)OCC1CN(S(C)(=O)=O)c2cc(O)ccc21` (stereo not drawn), the GI50 was inactive: 6.32 µM. In the case of `C=C(C)CNCC(=C)C.Oc1c(Cl)c(Cl)c(Cl)c(Cl)c1Cl`, the GI50 is inactive: 21.6 µM. `N#Cc1cc(-c2nc3cc(F)ccc3s2)ccc1N`: the GI50 is active: 0.0841 µM. With `O=C(O)CNC(=O)c1ccc([As](=O)(O)O)cc1` the figure was inactive: > 100 µM; with `COc1cccc2nc3ccccc3nc12`, inactive: 40.2 µM. For the molecule `Nc1nc(Cl)cc(NCCCCCCCCCCNc2cc(Cl)nc(N)n2)n1`, the GI50 was active: 0.0716 µM. For the molecule `CCSCCCSCCSCC`, the GI50 was inactive: > 100 µM. As to `COc1ccc(Cn2c3ccc([N+](=O)[O-])cc3c(=O)n2Cc2ccccn2)cc1`, the GI50 was inactive: > 100 µM. With `COCCc1c(C)c(C#N)c2n(C)c3ccccc3n2c1=O` the figure was inactive: > 10 µM; with `CN1C(=O)CN2C(Cl)(Cl)C2(c2ccccc2)c2cc(Cl)ccc21` (stereo not drawn), inactive: > 100 µM; with `O=C1/C(=C/c2ccc(Cl)cc2)CCC1CCN1CCOCC1` (stereo not drawn), inactive: > 100 µM. With `N#CCN1C(=O)c2cccc3cc([N+](=O)[O-])cc(c23)C1=O` the figure was inactive: 63.2 µM.

With `CC(=O)N(C)c1ccc(/N=C/N(C)C)cc1`, the GI50 is inactive: > 100 µM.

For `CN(C)CCCNC(=O)c1cc(NC(=O)CCCn2c3ccccc3c3ccccc32)cn1C`, the GI50 was inactive: 14.1 µM.

On to `N=C(N)c1ccc(/N=N\c2c(O)ccc3cc4c(/N=N\c5ccc(C(=N)N)cc5)c(O)ccc4cc23)cc1`, for which the GI50 was inactive: 73.1 µM. As to `COc1ccc2c(c1)CC[C@@H]1[C@@H]2CC[C@]2(C)/C(=N/OCCN3CCCC3)CC[C@@H]12`, the GI50 is inactive: 2.66 µM. Consider `C=C1C(=O)O[C@H]2[C@@H](O)[C@H](C)CCC[C@]3(C)O[C@H]3CC[C@@]3(C)O[C@@H]3C[C@@H]12`, for which the GI50 is inactive: 5.75 µM.

In the case of `CCN(CC)C(=O)COc1cc2c(O)c3c(O)c(C)c4c(c13)C(=O)C(C)(OC=CC(OC)C(C)C(OC(C)=O)C(C)C(O)C(C)C(O)C(C)C=CC=C(C)C(=O)N2)O4` (stereo not drawn), the GI50 is inactive: > 100 µM. As to `Cc1cn(C2CC(N(O)Cc3ccccc3)C(CO[Si](C)(C)C(C)(C)C)O2)c(=O)[nH]c1=O` (stereo not drawn), the GI50 was inactive: 18.7 µM and inactive: 20.6 µM. In the case of `Cc1cc(C)n(-c2nc(C)c(CCO)c(=O)[nH]2)n1`, the GI50 was inactive: > 100 µM. With `COc1ccc(SCc2cc(OC)ccc2OC)cc1` the figure was inactive: 98.2 µM. In the case of `CCOC1SC(SC)=NN1C(=O)C(OC(C)=O)C(OC(C)=O)C(OC(C)=O)C(OC(C)=O)C(=O)N1N=C(SC)SC1OCC` (stereo not drawn), the GI50 is inactive: > 100 µM.

For the molecule `CC1(C)C(C#N)=[N+]([O-])C(C)(C)N1O`, the GI50 is inactive: 78.7 µM. In the case of `CN1C(=O)C(O)CC1c1ccccc1F` (stereo not drawn), the GI50 was inactive: > 100 µM. Turning to `CN(C)/C=N\c1cccc2cnccc12`, the GI50 was inactive: > 100 µM. For `CCCCCCC(C)CC(CCCCCC)NCCOC(=O)c1ccc([N+](=O)[O-])cc1` (stereo not drawn), the GI50 is inactive: 12.9 µM.

On to `Nc1cc(OCc2ccccc2)c(OCc2ccccc2)cc1C=O`, for which the GI50 is inactive: 32.6 µM.

With `CC(=O)Nc1ccc(/C=N\N2C(=O)c3ccccc3C2=O)cc1`, the GI50 was inactive: > 100 µM. With `CC(=O)OC[C@@]1(C)[C@@H]2[C@@H]3[C@@]4(CO[C@]3(C)C(=O)[C@@]3(O)C[C@H](C)[C@H](OC(C)=O)[C@@H]3[C@H]4OC(C)=O)[C@H](OC(=O)c3ccccc3)C[C@@H]21` the figure was inactive: > 100 µM; with `CC(=O)C(C(=O)C(=O)Nc1cc(Cl)c(Cl)cc1Cl)c1csc(N)n1` (stereo not drawn), inactive: > 100 µM; with `N#CC1=C2Sc3ccccc3N2[C@H](c2ccccc2)[C@H]2COC(=O)[C@@H]12`, inactive: > 100 µM.

Consider `O=C1/C(=C/c2ccc(O)cc2)CCc2ccccc21`, for which the GI50 is inactive: 33.8 µM.

Take `N[C@H]1CCCC[C@@H]1N1C(=O)c2ccccc2C1(O)c1ccc(Cl)cc1` (stereo partly drawn): the GI50 was inactive: 14 µM. For the molecule `N=C(N)c1ccc(/C=C/c2ccc(C(=N)N)cc2)cc1`, the GI50 was inactive: > 100 µM. Next, `CC(C)c1ccc2c(c1)/C(=C1/Nc3ccccc3/C1=N/O)C(=O)N2`: inactive: 6.28 µM; `Cc1n[nH]c(=O)n1Nc1ccccc1`: inactive: > 100 µM; `Cc1c2c(c(C)c3c1[nH]c1ccccc13)CN(C)CC2`: inactive: 18.7 µM.

Turning to `CCN(CC)CCNC(=O)C1COc2ccc(-c3cc(=O)c4ccccc4o3)cc2O1` (stereo not drawn), the GI50 was inactive: 18.6 µM. On to `Cc1c(C2=C(Br)C(=O)N(C)C2=O)c(=O)n(C)c(=O)n1C`, for which the GI50 is inactive: > 100 µM. With `CCCCCCCCCCCCCC(=O)CBr`, the GI50 is inactive: 17.5 µM.

Regarding `CN(C)Cc1cc(C(C)(C)C)cc(C2CCCCC2)c1O`, the GI50 is inactive: 14.7 µM. As to `Cn1c(=O)c2ccccc2c2ccccc21`, the GI50 is inactive: 67.9 µM. Regarding `Cc1ccc2c(c1)CNc1ccc(C)cc1CN2`, the GI50 is inactive: > 100 µM. Take `O=c1[nH]nc(-c2ccccc2)n1O`: the GI50 is inactive: > 100 µM. With `O=[N+]([O-])c1ccc(Cl)cc1/C=N/C12CC3CC(CC(C3)C1)C2` the figure was inactive: 67.5 µM; with `CC(C)C1OCC(CO)CO1` (stereo not drawn), inactive: > 100 µM; with `Cc1ccc(S(=O)(=O)NCCCN(CCCNS(=O)(=O)c2ccc(C)cc2)S(=O)(=O)c2ccc(C)cc2)cc1`, inactive: > 100 µM. As to `CCc1c(O)c(O)c(C(C)=O)c2c(O)c(-c3c(C)cc4c(CC)c(O)c(O)c(C(C)=O)c4c3O)c(C)cc12`, the GI50 is inactive: 6.03 µM. Next, `Cc1cc(N(CCC#N)CCC#N)ccc1C(=N/NC(=O)c1cc(Cl)ccc1O)/N=N/c1cccc([N+](=O)[O-])c1`: inactive: 11.3 µM; `O=CNc1ccccc1OCCOc1ccccc1NC=O`: inactive: > 100 µM; `O=c1c2ccccc2nc(-c2ccccc2)n1O`: inactive: > 100 µM.

Consider `CCN(CC)CC(C(=O)Nc1c(C)cccc1C)/C(C)=N\NC(=O)C[N+](C)(C)C` (stereo not drawn), for which the GI50 was inactive: > 100 µM. With `CN(C)c1ccc(/C=c2\sc3nc4ccccc4n3c2=O)cc1` the figure was inactive: > 100 µM; with `CC(C)(C)OC(=O)N1NC(c2ccccc2)CC1c1ccccc1` (stereo not drawn), inactive: 26.5 µM; with `CCOC(=O)NC(Nc1cccc(F)c1)(C(F)(F)F)C(F)(F)F`, inactive: > 100 µM. As for `COc1ccc(/C(Br)=C2\OC(=O)c3ccccc32)cc1`, the GI50 is inactive: > 10 µM. With `CCOC(=O)C(C)c1cc(C2(C)OCCO2)c(C)o1` (stereo not drawn) the figure was inactive: > 100 µM; with `COP(=O)(Cc1ccc(/C=C/C#N)o1)OC`, inactive: > 100 µM; with `Cc1cc(N(CCC#N)CCC#N)ccc1/C=C1\N=C(c2cc([N+](=O)[O-])ccc2Cl)N(NC(=O)c2ccc(/N=C\c3ccc(N(CCC#N)S(C)(=O)=O)cc3C)cc2)C1=O`, inactive: 54.3 µM.

On to `N/N=C(\Nc1ccccc1)SCc1ccccc1`, for which the GI50 is inactive: > 100 µM. `O=C1C2c3[nH]c4ccccc4c3[C@@H]3CCCCC3C2C(=O)N1c1ccccc1` (stereo partly drawn): the GI50 is inactive: 31.8 µM. For `O=C1C2C(C(=O)N1Cc1ccccc1)N(Cc1ccccc1)C(=O)N2Cc1ccccc1` (stereo not drawn), the GI50 was inactive: > 100 µM. `CN(C)C(=S)Nc1nnc(NC23CC4CC(CC(C4)C2)C3)s1.[O-][Cl+3]([O-])([O-])O`: the GI50 was inactive: 33 µM. As to `Nc1c([N+](=O)[O-])nc(Cl)c2nncn12`, the GI50 was inactive: > 100 µM. With `Nc1ccccc1/N=C/c1cc2cc([N+](=O)[O-])ccc2s1` the figure was inactive: 18.5 µM.

Regarding `O=C1c2ccccc2C(=O)N1n1c(Cc2ccc(Cl)cc2)n[nH]c1=O`, the GI50 is inactive: > 100 µM. In the case of `Cc1nn(C(=O)Cc2ccccc2)c2c1C(c1ccc(O)cc1)SC(=N)N2` (stereo not drawn), the GI50 was inactive: > 100 µM. Turning to `C/C(CC(=O)Nc1ccc([N+](=O)[O-])cc1)=N\NC(N)=O`, the GI50 was inactive: > 100 µM. In the case of `CCCCCCCCCCCC(=O)C1=C(O)CC(O)CC1=O` (stereo not drawn), the GI50 is inactive: > 100 µM.

Consider `CCc1cccc(C)c1NC(=O)C(=O)Cc1nc2ccccc2s1`, for which the GI50 was inactive: > 100 µM. Take `COc1nc2c(c(=O)n1C)N=C(c1ccccc1)[C@H](C(CC(=O)c1ccccc1)c1ccccc1)C(c1ccccc1)N2` (stereo partly drawn): the GI50 is inactive: > 100 µM. Regarding `O=C1C(Cl)=C(Cl)C(=O)N1c1cccc(C(F)(F)F)c1`, the GI50 is inactive: > 100 µM.

For `CC(=O)Oc1cccc2c1C(=O)C(Br)(Br)CCC2`, the GI50 was inactive: 17.1 µM. As for `Cc1nnc(SCc2nc(C#N)c(C#N)nc2CSc2nnc(C)s2)s1`, the GI50 is inactive: 56.1 µM. As for `C#CCn1c(=O)c(I)cn(/C(=C\C(=O)OCC)C(=O)OCC)c1=O`, the GI50 was inactive: 16.7 µM. Consider `Nc1nc2[nH]cnc2c(=O)[nH]1`, for which the GI50 was inactive: > 100 µM. Next, `CCOC(=O)Nc1ccc(S(=O)(=O)NCCCl)cc1.CCOC(=O)Nc1ccc(S(=O)(=O)NCCCl)cc1.O=C(O)c1ccc(/N=N/Cl)cc1O`: inactive: > 100 µM; `CC(=O)OCC1OC(OC2CC3C(C)(C)C(=O)CC[C@]3(C)C3CC[C@]45C[C@]4(CCC5[C@@H](C)CC(O)C(O)C(C)(C)O)[C@]23C)C(O)C(O)C1O` (stereo partly drawn): inactive: 16.1 µM.

Take `COc1cccc2c1C(=O)c1c(O)c3c(c(O)c1C2=O)C[C@@](O)(C(=O)CO)CC3OC1CC(NCCOCC(OC(C)=O)OC(C)=O)C(O)C(C)O1` (stereo partly drawn): the concentration for 50% growth inhibition (GI50) was active: < 0.01 µM.

With `COc1ccc2nc3ccccc3c(NCCCCN(CCCl)CCCl)c2c1`, the GI50 was active: 0.353 µM. As to `CC(c1ccccc1)n1c2ccccc2c2c(N)ncnc21` (stereo not drawn), the GI50 is inactive: 18.7 µM.
